B1: Z18824 (Z-ABD) (designed binder)
chain: AQHDEALEVDAKYAKETEAVQMEIFHLPNLTRRQYTAFIRKLLDDPSQSSELLSEAKKLNDSQAPKVDYVLAEAKVLANRELDKYGVSDYYKNLINNAKTVEGVKALIDEILAALPYVPG
B2: Z18844 (Z-ABD) (designed binder)
chain: AQHDEALEVDAKYAKELEEIQMEIFSLPNLTRRQYTAFIRKLLDDPSQSSELLSEAKKLNDSQAPKVDYVLAEAKVLANRELDKYGVSDYYKNLINNAKTVEGVKALIDEILAALPYVPG
B3: Z18826 (Z-ABD) (designed binder)
chain: AQHDEALEVDAKYAKEIEEIQMEIFGLPNLTRRQYTAFIRKLLDDPSQSSELLSEAKKLNDSQAPKVDYVLAEAKVLANRELDKYGVSDYYKNLINNAKTVEGVKALIDEILAALPYVPG
B4: Z18853 (Z-ABD) (designed binder)
chain: AQHDEALEVDAKYAKEIEEIQMEIFYLPNLTRRQYTAFIRKLFDDPSQSSELLSEAKKLNDSQAPKVDYVLAEAKVLANRELDKYGVSDYYKNLINNAKTVEGVKALIDEILAALPYVPG
B5: Z18827 (Z-ABD) (designed binder)
chain: AQHDEALEVDAKYAKETEKVQMEIFRLPNLTRRQYTAFIRKLLDDPSQSSELLSEAKKLNDSQAPKVDYVLAEAKVLANRELDKYGVSDYYKNLINNAKTVEGVKALIDEILAALPYVPG
B6: Z18848 (Z-ABD) (designed binder)
chain: AQHDEALEVDAKYAKEIEEIQMEIFFLPNLTRKQYTAFIRKLLDDPSQSSELLSEAKKLNDSQAPKVDYVLAEAKVLANRELDKYGVSDYYKNLINNAKTVEGVKALIDEILAALPYVPG
B7: Z18846 (Z-ABD) (designed binder)
chain: AQHDEALEVDAKYAKEIEEIQMEIFHLPNLTRRQYTAFIRKLLDDPSQSSELLSEAKKLNDSQAPKVDYVLAEAKVLANRELDKYGVSDYYKNLINNAKTVEGVKALIDEILAALPYVPG
B8: Z18825 (Z-ABD) (designed binder)
chain: AQHDEALEVDAKYAKETEKVQMEIFGLPNLTRKQYTAFIRKLFDDPSQSSELLSEAKKLNDSQAPKVDYVLAEAKVLANRELDKYGVSDYYKNLINNAKTVEGVKALIDEILAALPYVPG
B9: Z18849 (Z-ABD) (designed binder)
chain: AQHDEALEVDAKYAKEIEEVQMEIFYLPNLTRKQYTAFIRKLFDDPSQSSELLSEAKKLNDSQAPKVDYVLAEAKVLANRELDKYGVSDYYKNLINNAKTVEGVKALIDEILAALPYVPG
B10: Z18843 (Z-ABD) (designed binder)
chain: AQHDEALEVDAKYAKEIEEIQMEIFYLPNLTRRQYTAFIRKLLDDPSQSSELLSEAKKLNDSQAPKVDYVLAEAKVLANRELDKYGVSDYYKNLINNAKTVEGVKALIDEILAALPYVPG
B11: Z18856 (Z-ABD) (designed binder)
chain: AQHDEALEVDAKYAKELEEIQMEIFHLPNLTRRQYTAFIRKLLDDPSQSSELLSEAKKLNDSQAPKVDYVLAEAKVLANRELDKYGVSDYYKNLINNAKTVEGVKALIDEILAALPYVPG
B12: Z18828 (Z-ABD) (designed binder)
chain: AQHDEALEVDAKYAKEVEEIQMEIFYLPNLTRRQYTAFIRKLLDDPSQSSELLSEAKKLNDSQAPKVDYVLAEAKVLANRELDKYGVSDYYKNLINNAKTVEGVKALIDEILAALPYVPG
B13: Z18836 (Z-ABD) (designed binder)
chain: AQHDEALEVDAKYAKEVEAIQMEIFGLPNLTRRQYTAFIRKLLDDPSQSSELLSEAKKLNDSQAPKVDYVLAEAKVLANRELDKYGVSDYYKNLINNAKTVEGVKALIDEILAALPYVPG
B14: Z18833 (Z-ABD) (designed binder)
chain: AQHDEALEVDAKYAKEVEEVQMEIFYLPNLTRRQYTAFIRKLLDDPSQSSELLSEAKKLNDSQAPKVDYVLAEAKVLANRELDKYGVSDYYKNLINNAKTVEGVKALIDEILAALPYVPG
B15: Z18839 (Z-ABD) (designed binder)
chain: AQHDEALEVDAKYAKEVEAVQMEIFALPNLTRKQYTAFIRKLLDDPSQSSELLSEAKKLNDSQAPKVDYVLAEAKVLANRELDKYGVSDYYKNLINNAKTVEGVKALIDEILAALPYVPG
B16: Z18830 (Z-ABD) (designed binder)
chain: AQHDEALEVDAKYAKEVEEIQMEIFFLPNLTRRQYTAFIRKLLDDPSQSSELLSEAKKLNDSQAPKVDYVLAEAKVLANRELDKYGVSDYYKNLINNAKTVEGVKALIDEILAALPYVPG
B17: Z18847 (Z-ABD) (designed binder)
chain: AQHDEALEVDAKYAKETEEVQMEIFALPNLTRKQYTAFIRKLLDDPSQSSELLSEAKKLNDSQAPKVDYVLAEAKVLANRELDKYGVSDYYKNLINNAKTVEGVKALIDEILAALPYVPG
B18: Z18850 (Z-ABD) (designed binder)
chain: AQHDEALEVDAKYAKEIEEIQMEIFALPNLTRRQYTAFIRKLLDDPSQSSELLSEAKKLNDSQAPKVDYVLAEAKVLANRELDKYGVSDYYKNLINNAKTVEGVKALIDEILAALPYVPG
B19: Z18838 (Z-ABD) (designed binder)
chain: AQHDEALEVDAKYAKEVEEIQMEIFHLPNLTRKQYTAFIRKLLDDPSQSSELLSEAKKLNDSQAPKVDYVLAEAKVLANRELDKYGVSDYYKNLINNAKTVEGVKALIDEILAALPYVPG
B20: Z18851 (Z-ABD) (designed binder)
chain: AQHDEALEVDAKYAKEIEQIQMEIFYLPNLTRRQYTAFIRKLLDDPSQSSELLSEAKKLNDSQAPKVDYVLAEAKVLANRELDKYGVSDYYKNLINNAKTVEGVKALIDEILAALPYVPG
B21: Z18832 (Z-ABD) (designed binder)
chain: AQHDEALEVDAKYAKEVEEIQMEIFHLPNLTRRQYTAFIRKLLDDPSQSSELLSEAKKLNDSQAPKVDYVLAEAKVLANRELDKYGVSDYYKNLINNAKTVEGVKALIDEILAALPYVPG
B22: Z18834 (Z-ABD) (designed binder)
chain: AQHDEALEVDAKYAKEVEEIQMEIFGLPNLTRRQYTAFIRKLLDDPSQSSELLSEAKKLNDSQAPKVDYVLAEAKVLANRELDKYGVSDYYKNLINNAKTVEGVKALIDEILAALPYVPG
B23: Z18841 (Z-ABD) (designed binder)
chain: AQHDEALEVDAKYAKEVEEIQMEIFGLPNLTRKQYTAFIRKLLDDPSQSSELLSEAKKLNDSQAPKVDYVLAEAKVLANRELDKYGVSDYYKNLINNAKTVEGVKALIDEILAALPYVPG
B24: Z18831 (Z-ABD) (designed binder)
chain: AQHDEALEVDAKYAKEIEEVQMEIFYLPNLTRRQYTAFIRKLLDDPSQSSELLSEAKKLNDSQAPKVDYVLAEAKVLANRELDKYGVSDYYKNLINNAKTVEGVKALIDEILAALPYVPG

The test addresses T1, human IL-1R-I (human, UniProt P14778 18-332, limits assumed).
T1 construct: bought recombinant protein; also called hIL-1R-I; hIL-1RI
T1 sequence (looked up): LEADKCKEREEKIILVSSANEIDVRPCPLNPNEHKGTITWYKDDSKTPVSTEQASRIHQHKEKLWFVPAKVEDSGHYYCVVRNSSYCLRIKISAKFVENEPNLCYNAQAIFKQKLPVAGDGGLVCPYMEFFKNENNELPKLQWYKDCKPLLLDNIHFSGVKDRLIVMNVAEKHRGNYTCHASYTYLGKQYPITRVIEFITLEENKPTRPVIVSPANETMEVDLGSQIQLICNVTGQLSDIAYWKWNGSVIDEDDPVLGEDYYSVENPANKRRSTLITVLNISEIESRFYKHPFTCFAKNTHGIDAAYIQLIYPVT
The experiment in a line: SPR screening; Z-ABD captured on anti-ABD, 100 nM hIL-1R-I injected.
As for B1, the Kd (commonly the equilibrium constant for the complex coming apart) was 3.3 nM. In the case of B2, binding was put at a Kd of 4 nM.

B3 showed a Kd of 3.5 nM. B4 returned a Kd of 2.3 nM. Take B5: the Kd was 4.3 nM. In the case of B6, the Kd was determined as 3 nM. Molecule B7 yielded a Kd of 2.1 nM. Turning to B8, binding was characterised by a dissociation constant (Kd) of 4.9 nM.

For the molecule B9, binding was characterised by a dissociation constant (Kd) of 3 nM. The molecule B10 showed a Kd of 3.1 nM. In the case of B11 it was 2.9 nM; in that of B12, 2.6 nM; in that of B13, 2.9 nM. The value for B14 was 3.8 nM; that for B15 was 3.1 nM. The value for B16 was 2.9 nM; that for B17 was 3 nM; that for B18 was 2.6 nM. Consider B19, for which binding was put at a Kd of 3.3 nM. As to B20, the Kd was 3.6 nM. Molecule B21 displayed a dissociation constant Kd of 1.6 nM. Regarding B22, the Kd was found to be 2.4 nM. For B23, the Kd is 2.5 nM. As for B24, binding was characterised by a dissociation constant (Kd) of 3 nM.

The values above are taken from patent US20250066451A1 (SWEDISH ORPHAN BIOVITRUM AB PUBL, published 2025).
